In PubChem BioAssay AID1508624 (National Center for Advancing Translational Sciences (NCATS), 2021):
In all, about 48,000 compounds went through this assay and about 120 (0.25%) were called active. Inconclusive results (about 4%) are left out. The call rests on the fitted dose curve; in most records, active means well fitted activation curve with a large enough effect; inconclusive means small, poorly fitted or top-dose-only effect, or another doubt; inactive means no such curve, though single readings can be large or run the other way. The list shows a part of the results.

assay: Primary qHTS for Identification of Small Molecule Activators of Huntingtin-Antisense Promoter Activity; details: HEK293 HTT-AS promoter firefly luciferase reporter (activity 0% = vehicle and -100% = no light), 24 h; series mostly up to 57.5 µM; activity change, positive = activation: at the top concentration; further: nearly all actives have a fitted effect of over 55% in size
Procedure, shortened: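 Luminescence was read after Dual-Glo reagent and a 10 min room-temperature incubation. Values were normalized to vehicle (0% activity) and zero RLU (-100% activity). Reporter HEK293 cells had been exposed to compounds (up to 57.5 uM final) for 24 h.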

Activity change, positive = activation, inactive:
CCOC(=O)c1ccccc1NC(=O)c1c(C)oc2ncnc(N3CCOCC3)c12 -21.3%
COc1cccc(-n2c(=O)c3c(C)c(C)sc3n(Cc3ccccc3C#N)c2=O)c1 -30.3%
COc1ccc(-c2nc3sc(CCNC(=O)C(=O)Nc4ccccc4C#N)c(C)n3n2)cc1 3.9%
COCCCNC(=O)c1ccc(Cn2c(=O)c3ccccc3n(Cc3ccc(Cl)cc3)c2=O)cc1 -17.6%
Cc1cccc(-n2c(SCC(=O)Nc3ccc(C)c(C)c3)nc3n[nH]c(C)c3c2=N)c1 -43%
O=C(c1ccc2c(c1)N(Cc1ccc(Cl)cc1)C(=O)c1ccccc1S2(=O)=O)N1CCOCC1 -15.8%
CCCCC(CC)CNC(=O)CCCCCn1c(=O)[nH]c2ccsc2c1=O (stereo not given) -22.2%
CCc1ccc(-n2c(=O)c3ccccc3n(Cc3ccccc3C#N)c2=O)cc1 -14.9%
CC(C)c1ccc(NC(=O)c2ccc(=O)n(Cc3ccccc3)c2)cc1 -20.6%
COc1cccc(C2C(C(N)=O)=C(C)Nc3ncnn32)c1 (stereo not given) 5.68%
O=C(CSc1nc2c(oc3ccccc32)c(=O)n1-c1ccccc1)Nc1ccc(F)c(Cl)c1 -8.4%
COc1ccc(OC)c(NC(=O)C2=C(C)C(=O)OC23CCN(C(C)C)CC3)c1 -5.94%
Fc1ccc(N2CCN(c3ncnc4onc(-c5ccc(Cl)cc5)c34)CC2)cc1 -25.4%
CCOC(=O)c1c(NC(C)=O)c2c3c(sc2n1Cc1cc(C)ccc1C)CCCC3 -6.66%
Cc1ccc(N(CC2=NCCN2)c2cccc(O)c2)cc1
CCOc1ccccc1NC(=O)Cn1c(=O)n(Cc2ccco2)c(=O)c2sc3ccccc3c21 -14.9%
CN(C)c1ccc(CNC(=O)c2ccc3nc(Cc4ccccc4)oc3c2)cc1 -27.1%
O=C(O)CCn1ccc2cc(S(=O)(=O)N3CCCCCC3)ccc21 -15.7%
CSc1ccc(CCNC(=O)c2csc3c2CCCCC3)cc1 -9.11%
Cc1cc(C)c(NC(=O)C(=O)NCCc2csc(-c3ccc(F)cc3)n2)c(C)c1 -32.9%
COc1cc(Nc2nc(-c3ccc(OC)c(OC)c3)nc3ccccc23)cc(OC)c1 -39.7%
Cc1cccn2c(=O)c(C(=O)N3CCN(c4ccccc4)CC3)cnc12 15.6%
COc1ccccc1Nc1c2c(nc3ccc(NC(=O)c4ccc(N(C)C)cc4)cc13)CCCC2 -42.4%
Cc1ccc(C(=O)c2c(N)c(C(=O)Nc3cccc(C(F)(F)F)c3)c3ccccn23)cc1 6.59%
Cc1ccc(-n2c(=O)c3oc4ccccc4c3n(Cc3cccc(F)c3)c2=O)cc1C -37.5%
Cc1nc2nc(NCc3ccc(Br)cc3)[nH]n2c(=O)c1Cc1ccccc1 -24.9%
CCCCOc1ccc(C(=O)Nc2cccc(-c3nc4ccccc4o3)c2C)cc1 -12.4%
COc1ccc(OC)c(CNC(=O)NCc2noc3ccc(C)cc23)c1 -11.9%
CCN1C(=O)c2ccccc2S(=O)(=O)c2ccc(C(=O)NCc3ccccc3OC)cc21 -21.8%
CC(C)c1ccc(NC(=O)c2cc3c(=O)[nH]c4ccccc4c3n2C)cc1 -9.74%
O=C(CSc1cn(CC(=O)N2CCCCC2)c2ccccc12)NCc1ccccc1Cl -22.6%
Cc1ccc(-n2nc(C)c3c(C(=O)NCCc4ccc(S(N)(=O)=O)cc4)cc(C)nc32)cc1 -16.9%
O=C(CN1C(=O)c2cccnc2Sc2ccccc21)Nc1cc(F)ccc1F -10.2%
CCC1CN(C(=O)N2CCC(C(=O)NCc3cccc(F)c3)CC2)c2cc(C)ccc2O1 (stereo not given) -39.1%
COc1ccccc1NS(=O)(=O)c1cn(C)c(C)n1 -17.5%
COc1ccc(N2CC(NC(=O)COc3cccc(C)c3)CC2=O)cc1OC (stereo not given) -18%
Cc1ccc(C)c(N2CCN(C(=O)Cn3nc(C)c4sc5ccccc5c4c3=O)CC2)c1 -9.36%
COc1ccccc1N(CC(=O)Nc1ccccc1C(F)(F)F)S(=O)(=O)c1ccc(C)cc1 -26.7%
Cc1c(C(C)C)c(=O)n(-c2ccccc2)n1C -5.45%
CCC(O)c1nc2ccccc2n1Cc1cc(C)ccc1C (stereo not given) -14%
Cc1oc2ccc(O)c(CN3CCCCCC3)c2c1C(=O)Nc1cccc(C(F)(F)F)c1 -50.8%
CCOc1ccc(NC(=O)CSc2nc3ccsc3c(=O)n2CCC(C)C)cc1 -6.59%
Cc1ccc(NC(=O)C2CCN(S(=O)(=O)c3ccc4c(c3)CCCC(=O)N4)CC2)cc1N(C)C -33.4%
COc1ccc(OC)c(NC(=O)C2CCN(S(=O)(=O)c3ccc4c(c3)CC(C)N4C(C)=O)CC2)c1 (stereo not given) -26.2%
COc1ccc(OC)c(NC(=O)C(C)n2c(=O)c(-c3ccccc3NC(C)=O)nc3ccccc32)c1 (stereo not given) -27.4%
O=C(CC1Sc2ccccc2NC1=O)Nc1cccc(C(F)(F)F)c1 (stereo not given) -27.2%
COc1ccc(-c2nc(CSCC(=O)NCCC(C)C)c(C)o2)cc1OC -17.1%
CCN(CC)c1ccc(C2C(C(N)=O)=C(C)Nc3nc(SCc4ccccc4Cl)nn32)cc1 (stereo not given) -61%
CCOC(=O)c1ccc(N=C2SC(C(=O)Nc3ccccc3)CC(=O)N2C)cc1 (stereo not given) -25.3%
Cc1ccc(NC(=O)c2ccc(C)c(S(=O)(=O)N3CCCCCC3)c2)cc1 -18.9%
COc1ccc(CNC(=O)C2(c3cccs3)CCOCC2)cc1 -9.87%
O=C(CCCCCCC(=O)Nc1cccnc1)NO -86.9%
CCOC(=O)C1=C(CN2CCN(c3ccc(C)cc3C)CC2)NC(=O)NC1c1ccc(OC)cc1 (stereo not given) -37.1%
Cc1ccccc1-c1nc(CN2CCC(C(=O)NC(C)C)CC2)c(C)o1 -0.788%
CCCCc1nn2c(=O)cc(COC(=O)CNC(=O)COc3ccc(C)cc3)nc2s1 -14.4%
CCOc1ccc(NC(=O)c2c(NCc3cccs3)sc3c2CCC(C)C3)cc1 (stereo not given) -13.1%
CCCCN(C)CCCNC(=O)c1cn(CC)c2ccc(S(=O)(=O)N3CCc4ccccc4C3)cc2c1=O -3.17%
COc1ccccc1CNC(=O)c1cc(S(=O)(=O)N2CCCC(C)C2)cn1C (stereo not given) -23%
Cc1ccc2oc(-c3ccc(NC(=O)c4oc5ccc(Cl)cc5c4C)cc3)nc2c1 2.56%
Cc1ccc(-n2nc(C)c3c(C(F)(F)F)cc(-c4cccnc4)nc32)cc1C -12.1%
Cc1cccc(NC(=O)Cn2c(SCC(=O)NCc3ccccc3)nc3ccccc32)c1C -20.6%
O=C(c1cnn(-c2ccc(F)cc2)c1-n1cccc1)N1CCN(c2ccccc2)CC1 -12.7%
CC(C)OCCCn1c(SCc2ccccc2Cl)nc2c(sc3ccccc32)c1=O 18.6%
CCOc1ccc(NC(=O)CSc2cn(CC(=O)N3CCOCC3)c3ccccc23)cc1 5.71%
CCC1CN(C(=O)N2CCC(C(=O)NCCC3=CCCCC3)CC2)c2ccccc2O1 (stereo not given) 5.38%
CCC(Cc1ccccc1)NC(=O)c1cccc(Nc2nc3ccccc3nc2-n2nc(C)cc2C)c1 (stereo not given) 12.3%
CCC1CCCCN1C(=O)Cn1c(=O)n(-c2ccc(Cl)c(Cl)c2)c(=O)c2c(C)c(C(=O)N(C)C)sc21 (stereo not given) -13.3%
COc1ccc(CCNC(=O)c2cc(=O)[nH]c3ccc(S(=O)(=O)N4CCCCC4)cc23)cc1OC -10.2%
CCOc1ccc(NC(=O)C2CCC(CNS(=O)(=O)c3ccc4c(c3)CCCC(=O)N4)CC2)cc1 (stereo not given) -0.778%
Cc1c(Cl)cccc1Nc1ccccc1C(=O)O -13.9%
CC(=O)Nc1c(C)nn(-c2ccccc2)c1N1CCC(C(=O)NCc2cccc(F)c2)CC1 -2.23%
CCN(c1cc(C)cc(C)c1)S(=O)(=O)c1nnc(NC(=O)c2ccccc2C)s1 -40.6%
Cc1ccc(N(CC(=O)N2CCN(c3cccc(C)c3C)CC2)S(=O)(=O)c2c(C)nn(C)c2C)cc1 -33.5%
CCOC(=O)c1cc2c(=O)n3ccccc3nc2n(C(C)C)c1=NC(=O)c1c(-c2c(F)cccc2Cl)noc1C -37.8%
CCc1cccc(C)c1NC(=O)c1cc(S(=O)(=O)N2CCN(c3ccccc3)CC2)ccc1F -25.2%
COc1ccc(OC)c(CNc2ncnc3onc(C)c23)c1 -29.9%
Cc1cccc(CCNC(=O)CCc2c(C)nc3c(c(C)nn3-c3ccccc3)c2C)c1 -35.2%
COc1ccc2c(c1)CC(C(=O)Nc1cc(OC)c(OC)c(OC)c1)CO2 (stereo not given) -17.3%
CN(C)c1ccc(C(=O)NCc2ccc3c(c2)CCN3C(=O)c2ccc(Cl)cc2)cc1 -14%
COc1ccc(Cl)cc1NC(=O)CCn1nc(C)cc1C -1.8%
CN1C(=O)c2ccccc2Sc2ccc(NC(=O)N3CCN(c4cccc(Cl)c4)CC3)cc21 -59.5%
Clc1ccc(CNc2ncnc3onc(-c4ccc(Cl)cc4)c23)cc1 -25.2%
COc1ccc(C(=O)NCc2ccc3c(c2)CCN3C(=O)c2ccc(Cl)cc2)c(OC)c1 -2.92%
COc1cc(OC)cc(C(=O)Nc2cccc(-c3cn4ccsc4n3)c2)c1 -3.37%
Cc1ccc(NC(=O)CSc2nccn2-c2ccccc2)cc1 21.3%
O=C(COc1ccccc1Cl)Nc1ccc2nc(SCC(=O)N3CCOCC3)sc2c1 -41.8%
O=S(=O)(c1ccc2nc(Nc3ccc(Br)cc3F)ccc2c1)N1CCCCC1 -22%
CCSc1nc2sc3c(c2c(=O)n1-c1ccc(C)c(Cl)c1)CCN(C(C)=O)C3 -24.3%
Cc1ccccc1Cn1cc(S(=O)(=O)c2ccc(F)cc2)c(=O)c2cc3c(cc21)OCO3 -7.58%
Cc1ccc(NC(=O)Cn2c(=O)n(CCCCC(=O)NCCc3ccccc3)c(=O)c3ccccc32)cc1 -10.1%
Cc1cc(=O)n(Cc2ccc(Br)cc2F)c2c1c(C)nn2-c1ccccc1 -0.424%
O=C(CCNS(=O)(=O)c1ccc2c(c1)CCCC(=O)N2)NCc1ccc(Cl)cc1 -15.2%
Cc1cc(Cl)ccc1OCCSc1nnc(-c2cccs2)o1 -12.6%
COc1cc(F)c(C(C)C)cc1-c1ccc(C(F)(F)F)cc1CN1C(=O)O[C@H](c2cc(C(F)(F)F)cc(C(F)(F)F)c2)[C@@H]1C -20.2%
COC(=O)c1ccc2c(c1)N(CC(=O)Nc1ccc(C)cc1Cl)C(=O)c1ccccc1S2 -3.07%
